Data: the supplement of paper PMC10369915
The list shows a part of the results. No stated cut-off is given here; in the data, active = 3.2 or more and inactive = the rest. Only a few entries rise above the background.

Key:
Assay in all cases: enrichment score (SH2-bound / input frequency) (ratio); bacterial display of known human phosphotyrosine sites (pTyr-Var adds point mutants) read by sequencing; higher = stronger binding; tyrosines were phosphorylated by kinases first
Conditions in all cases: peptide library: pTyr-Var
[1] = molecular target: SHP2 C-SH2 domain E139D
[2] = molecular target: SHP2 C-SH2 domain wild-type
[3] = molecular target: SHP2 N-SH2 domain L43F
[4] = molecular target: SHP2 N-SH2 domain T42A
[5] = molecular target: SHP2 N-SH2 domain T52S
[6] = molecular target: SHP2 N-SH2 domain wild-type
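Further: displayed peptides selected on beads carrying the immobilized SH2 domain, with library peptides lacking any tyrosine serving as negative controls.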

Row | Binder | enrichment score [1] | enrichment score [2] | enrichment score [3] | enrichment score [4] | enrichment score [5] | enrichment score [6]
1 | EILLSYPRTGF [TGM1_Y365_L366P_YF] | inactive: 1.18 | inactive: 0.972 | inactive: 1.08 | inactive: 1.05 | inactive: 1.07 | inactive: 0.984
2 | NPETCYQRLKK [TK2_Y190] | inactive: 0.561 | inactive: 0.771 | inactive: 0.571 | inactive: 0.52 | inactive: 0.664 | inactive: 0.714
3 | GNLQENLTRHV [TGFBR2_Y336_Y336N] | inactive: 0.773 | inactive: 0.649 | inactive: 0.665 | inactive: 0.684 | inactive: 0.621 | inactive: 0.826
4 | FSDQVYRQRRK [TH_Y230] | inactive: 0.226 | inactive: 0.278 | inactive: 0.233 | inactive: 0.267 | inactive: 0.215 | inactive: 0.211
5 | REVKAYGAGLL [TH_Y419_G414R] | inactive: 0.638 | inactive: 0.681 | inactive: 0.645 | inactive: 0.662 | inactive: 0.63 | inactive: 0.718
6 | NPEACYQRLKK [TK2_Y190_T188A] | inactive: 0.51 | inactive: 0.531 | inactive: 0.485 | inactive: 0.556 | inactive: 0.482 | inactive: 0.551
7 | FRVAGYETQGG [TIA1_Y383_YF] | inactive: 0.723 | inactive: 0.617 | inactive: 0.847 | inactive: 0.605 | inactive: 0.674 | inactive: 0.936
8 | AEKPKYQISNI [TJP1_Y1602_N1605S] | inactive: 0.993 | inactive: 0.91 | inactive: 0.787 | inactive: 0.799 | inactive: 0.658 | inactive: 0.787
9 | DWWQEYVLNES [TGM1_Y267_R264W] | inactive: 1.98 | inactive: 2.32 | inactive: 1.99 | inactive: 2.56 | inactive: 2.13 | inactive: 2.02
10 | YLRTGYSVPYG [TGM1_Y370] | inactive: 0.933 | inactive: 1.43 | inactive: 0.976 | inactive: 1.42 | inactive: 1.04 | inactive: 0.913
11 | ATRKAYGQALA [TKT_Y321] | inactive: 0.66 | inactive: 0.512 | inactive: 0.484 | inactive: 0.526 | inactive: 0.41 | inactive: 0.486
12 | TNEYEYDELIV [TGM1_Y136_D132N] | inactive: 0.622 | inactive: 0.478 | inactive: 0.663 | inactive: 0.464 | inactive: 0.459 | inactive: 0.532
13 | EFNINYNNEPP [THG1L_Y228_L232P] | inactive: 0.826 | inactive: 0.848 | inactive: 0.655 | inactive: 0.709 | inactive: 0.735 | inactive: 0.755
14 | TFQFKYPEGSS [TGM4_Y440_E437Q_YF] | inactive: 0.967 | inactive: 0.696 | inactive: 1.13 | inactive: 1.1 | inactive: 0.735 | inactive: 0.8
15 | EILLSYLRTGF [TGM1_Y365_YF] | inactive: 1.32 | inactive: 1.1 | inactive: 1.04 | inactive: 1.1 | inactive: 1.24 | inactive: 1.47
16 | TFEFKYPEGSS [TGM4_Y440_YF] | inactive: 0.982 | inactive: 0.729 | inactive: 0.786 | inactive: 0.672 | inactive: 0.955 | inactive: 0.797
17 | NPETCYQKLKK [TK2_Y190_R192K] | inactive: 1.05 | inactive: 1.41 | inactive: 1.18 | inactive: 0.817 | inactive: 0.899 | inactive: 1.49
18 | FQCKHYACIRQ [TIMP3_Y182_S179C_YF] | active: 4.52 | active: 4.05 | active: 3.74 | active: 3.37 | active: 3.59 | active: 3.72
19 | YLRTGYSIPYG [TGM1_Y370_V372I] | inactive: 1.17 | inactive: 1.7 | inactive: 1.32 | inactive: 2.66 | inactive: 1.42 | inactive: 1.25

Row | Binder | enrichment score [1] | enrichment score [2] | enrichment score [3] | enrichment score [4] | enrichment score [5] | enrichment score [6]
20 | EILLSDLRTGY [TGM1_Y365_Y365D] | inactive: 0.945 | inactive: 0.789 | inactive: 0.821 | inactive: 0.826 | inactive: 0.865 | inactive: 1.02
21 | YPRTGYSVPYG [TGM1_Y370_L366P] | inactive: 0.928 | inactive: 0.867 | inactive: 1.03 | inactive: 0.883 | inactive: 0.915 | inactive: 1.06
22 | DLRTGYSVPYG [TGM1_Y370_Y365D] | inactive: 0.939 | inactive: 1.03 | inactive: 0.874 | inactive: 0.913 | inactive: 0.711 | inactive: 0.912
23 | GCKNRYDKDKP [THAP1_Y14] | inactive: 1.41 | inactive: 1.16 | inactive: 1.27 | inactive: 1.1 | inactive: 1.94 | inactive: 0.941
24 | NKEPRYQEDPP [TJP2_Y479] | inactive: 0.617 | inactive: 0.33 | inactive: 0.707 | inactive: 0.617 | inactive: 0.574 | inactive: 1.14
25 | DWQQEYVLNES [TGM1_Y267_R264Q] | inactive: 0.89 | inactive: 0.806 | inactive: 0.714 | inactive: 0.686 | inactive: 0.888 | inactive: 1.05
26 | AEKPKYQINNI [TJP1_Y1602] | inactive: 0.924 | inactive: 0.812 | inactive: 0.916 | inactive: 0.895 | inactive: 0.762 | inactive: 0.718
27 | YRVAGYKTQGG [TIA1_Y383_E384K] | inactive: 0.653 | inactive: 0.536 | inactive: 0.478 | inactive: 0.4 | inactive: 0.416 | inactive: 0.607
28 | FQSKHYACIRQ [TIMP3_Y182_YF] | inactive: 1.66 | inactive: 2.42 | inactive: 1.39 | inactive: 1.47 | inactive: 1.32 | inactive: 1.75
29 | RRGMPYGGRGD [TGM1_Y312] | inactive: 0.19 | inactive: 0.359 | inactive: 0.292 | inactive: 0.318 | inactive: 0.263 | inactive: 0.277
30 | DWRQEYVLNEP [TGM1_Y267_S272P] | inactive: 0.793 | inactive: 0.827 | inactive: 0.823 | inactive: 0.683 | inactive: 0.732 | inactive: 0.794
31 | VDLIVYLWTNP [TK2_Y181_R183W] | inactive: 0.604 | inactive: 0.659 | inactive: 0.487 | inactive: 0.362 | inactive: 0.492 | inactive: 0.801
32 | ATCKAYGQALA [TKT_Y321_R318C] | inactive: 0.566 | inactive: 0.545 | inactive: 0.608 | inactive: 0.546 | inactive: 0.586 | inactive: 0.782
33 | GCKNRYDEDKP [THAP1_Y14_K16E] | inactive: 0.379 | inactive: 0.502 | inactive: 0.492 | inactive: 0.428 | inactive: 0.497 | inactive: 0.525
34 | VRSNHYAPEED [TJP1_Y1346_D1347A] | inactive: 0.549 | inactive: 0.617 | inactive: 0.647 | inactive: 0.481 | inactive: 0.556 | inactive: 0.856
35 | SSQVLYKLEQS [THADA_Y701] | inactive: 1.31 | inactive: 0.823 | inactive: 0.877 | inactive: 0.756 | inactive: 0.796 | inactive: 1.04
36 | TNEFEYDELIV [TGM1_Y136_D132N_YF] | inactive: 0.434 | inactive: 0.912 | inactive: 0.634 | inactive: 0.646 | inactive: 0.531 | inactive: 0.963
37 | EFNINYNNELP [THG1L_Y228] | inactive: 0.875 | inactive: 0.69 | inactive: 0.699 | inactive: 0.786 | inactive: 0.953 | inactive: 0.728
